# From the supplement of paper PMC10670038
# Counter-ions that a name gives are not always drawn. ± gives the standard deviation of the averaged measurements. In all, about 2,000 compounds were measured (“relative cell viability vs DMSO, compound + 0.2 uM CuET”: median about 1, lowest 2% from about 0.25 on). Some of the results follow.
# Tested on: TE10
# Assay: relative cell viability vs DMSO, compound + 0.2 uM CuET (fraction); TE10 is an esophageal squamous carcinoma line; higher = less cytotoxic
# Conditions: 2 µM; co-treatment: CuET (bis(diethyldithiocarbamate)copper) 0.2 uM; 48 h
# Experimental: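 TE10 ESCC cells (1,000/well, 384-well plates) were treated with Selleck bioactive library compounds at 2 uM combined with 0.2 uM CuET (copper diethyldithiocarbamate) for 48 h. Viability was read by CellTiter-Glo and expressed relative to DMSO wells. Two technical replicates (A, B).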
row,Compound,relative cell viability
1,OC[C@H]1O[C@@H](Oc2ccc(O)cc2)[C@H](O)[C@@H](O)[C@@H]1O [Arbutin],1.05 ± 0.076
2,CN(C)CCc1c[nH]c2ccc(Cn3cncn3)cc12 [Rizatriptan Benzoate],1.14 ± 0.042
3,CC(c1cc2ccccc2s1)N(O)C(N)=O (stereo unspecified) [Zileuton],1.282 ± 0.0068
4,CC1=C(C(=O)OC2CCCCC2)C(c2ccc([N+](=O)[O-])cc2)C2=C(CC(C)(C)CC2=O)N1 (stereo unspecified),1 ± 0.075
5,C[C@@H]1C(=O)O[C@H]2C[C@@]34[C@H]5C[C@@H](C(C)(C)C)[C@]36[C@@H](OC(=O)[C@@H]6O)O[C@@]4(C(=O)O5)[C@]21O [Ginkgolide A],1 ± 0.025
6,NC(=O)c1ncn([C@@H]2O[C@H](CO)[C@@H](O)[C@H]2O)c1N [Acadesine],0.967 ± 0.043
7,O=c1[nH]c(=O)n([C@H]2C[C@H](O)[C@@H](CO)O2)cc1F [Floxuridine],1.1921 ± 0.00061
8,C[N+]1(C)CCC(=C(c2ccccc2)c2ccccc2)CC1 [Diphemanil Methylsulfate],1.25 ± 0.088
9,COc1cc(/C=C/C(=O)O)ccc1O [Ferulic Acid],1.21 ± 0.12
10,O=C1C(=O)N(Cc2ccc(Cl)c(Cl)c2)c2ccccc21 [Apoptosis Activator 2],0.803 ± 0.059
11,O=C(NC1CCOCC1)c1ccc(-c2cc(-c3c[nH]nc3-c3ccccn3)ccn2)cc1,1.12 ± 0.06
12,NS(=O)(=O)c1cc2c(cc1Cl)NCNS2(=O)=O [Hydrochlorothiazide],1.08 ± 0.11
13,CN(C)CCC=C1c2ccccc2C=Cc2ccccc21 [Cyclobenzaprine HCl],1.1 ± 0.14
14,O=C1c2cccc(O)c2C(=O)c2c(O)cc(CO)cc21 [Aloe-emodin],1.02 ± 0.11
15,CN(C)CCc1c[nH]c2ccc(C[C@H]3COC(=O)N3)cc12 [Zolmitriptan],0.982 ± 0.026
16,CC(C)(F)C[C@H](N[C@@H](c1ccc(-c2ccc(S(C)(=O)=O)cc2)cc1)C(F)(F)F)C(=O)NC1(C#N)CC1 [Odanacatib (MK-0822)],0.77 ± 0.42
17,COc1cc(C)c(/C=C/C(C)=C/C=C/C(C)=C/C(=O)O)c(C)c1C [Acitretin],1.14 ± 0.12
18,CNC(=O)c1nn(C)c2c1C(C)(C)Cc1cnc(Nc3ccc(N4CCN(C)CC4)cc3)nc1-2,0.753 ± 0.028
19,CC(C)(O)CC[C@@H](O)[C@](C)(O)[C@H]1CC[C@@]2(O)C3=CC(=O)[C@@H]4C[C@@H](O)[C@@H](O)C[C@]4(C)[C@H]3CC[C@]12C [20-Hydroxyecdysone],1.107 ± 0.0052
20,CN[C@@H](C)C(=O)N[C@H](C(=O)N1CCC[C@H]1C(=O)Nc1snnc1-c1ccccc1)C1CCCCC1,0.732 ± 0.045
21,COc1cc2nc(N3CCN(C(=O)C4CCCO4)CC3)nc(N)c2cc1OC (stereo unspecified) [Terazosin HCl],0.9374 ± 0.008
